The values that follow come from PMC9574860, “Chemical Toolkit for PARK7: Potent, Selective, and High-Throughput” (Journal of Medicinal Chemistry, 2022).

SMILES strings stand for the structures. In all, about 7,900 compounds went through this assay and about 400 (5.1%) showed an effect of 50% or more. Some of the results follow.

Parkinson's disease protein 7 (PARK7/DJ1), sequence (Q99497 whole entry, looked up, the tested form may be a part): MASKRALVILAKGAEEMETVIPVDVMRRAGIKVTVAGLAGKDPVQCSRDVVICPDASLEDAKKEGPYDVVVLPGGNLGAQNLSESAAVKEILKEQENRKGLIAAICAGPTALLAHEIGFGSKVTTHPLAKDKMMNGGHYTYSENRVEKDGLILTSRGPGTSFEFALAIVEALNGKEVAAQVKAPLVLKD

The assay deals with Parkinson's disease protein 7 (PARK7/DJ1) (human, UniProt Q99497). As to the kind of experiment: primary screen, percent inhibition; read as competition with a fluorescent probe by fluorescence polarization; higher = more effect of the substance. The following applies: 100 µM. The gist of the method:
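Fluorescence-polarization probe displacement (JYQ-107, 20 nM final, 2 h) after 2 h preincubation of PARK7 (0.2 μM final) with each fragment at 100 μM final. Read-out ex/em 480/520 nm; remaining activity derived from FP signal loss relative to reference controls.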
`NC(=O)n1cc(C(=O)c2cc(Cl)ccc2O)cn1`: the Inhibition % came out at 5.53%.
Regarding `NS(=O)(=O)c1cccc(NC(=O)CCCl)c1`, the Inhibition % was 4.37%.
In the case of `N#CC(=Cc1cccs1)C(=O)NCc1ccco1` it was 1.56%; in that of `CC(C)NC(=O)C(C#N)=Cc1ccc2c(c1)OCCO2`, 0.585%; in that of `C=CC(=O)NCCc1nnc2n1CCCCC2`, 8.54%.
In the case of `C=CC(=O)N1CCC(C)C2CCCCC21` (stereo not shown) it was 9.24%.
As for `C=CC(=O)N1CCc2sccc2C1C` (stereo not shown), the figure is 2.93%; as for `CS(=O)(=O)N1CCCC(CCl)C1` (stereo not shown), 4.56%.
With `C=CC(=O)N1CCN2C(=O)CCC12c1ccccc1` (stereo not shown), the Inhibition % was 27.7%.
In the case of `O=C(O)C=Cc1ccncn1` it was 12.8%; in that of `C=C(C(=O)O)c1ccccc1F`, 3.02%; in that of `C=CC(=O)N1CCN(Cc2ncon2)CC1`, 12.2%.
In the case of `N#Cc1cc(N2CCCC2CF)ccn1` (stereo not shown) it was 19.7%.
As for `O=C(CN1CCSC1=O)Nc1ccc(F)cc1Cl`, the figure is 5.37%; as for `CC(=O)Nc1cccc(OC(=O)N2CCOCC2)c1`, 5.06%; as for `CSc1ccccc1NC(=O)CCCl`, 5.4%.
Take `COc1sccc1B1OC(C)(C)C(C)(C)O1`: the Inhibition % is on record as 14.3%.
For the compound `CC1CC(C)CC(B2OC(C)(C)C(C)(C)O2)C1` (stereo not shown), the Inhibition % worked out at 7.39%.
In the case of `C=CC(=O)Nc1cccc(C(F)F)c1` it was 6.09%; in that of `Nc1cccnc1S`, 101%.
As for `Cc1ccc(S(=O)(=O)OCC2CCCCO2)cc1` (stereo not shown), the figure is 16.8%; as for `O=C(c1cc(F)cc(F)c1)N1CCCCC1C1OCCO1` (stereo not shown), 3.28%; as for `CC(=O)N(c1ccc(Cl)cc1)C1C=CS(=O)(=O)C1` (stereo not shown), 7.19%.
Turning to `C=CC(=O)N1CC(=O)N(Cc2ccccc2)C1`, the Inhibition % was 8.41%.
In the case of `N#Cc1nc(C2CC2)oc1N1CCNCC1` it was 1.83%; in that of `N#Cc1nccc(O)n1`, 29.6%.
As for `CC(c1nc2ccccc2s1)N(C)C(=O)CCl` (stereo not shown), the figure is 97.3%; as for `COC(=O)Nc1ccc(S(=O)(=O)F)cc1`, 34.7%; as for `FC(F)(F)c1ccnc(S)c1`, 29.6%.
As for `C1CC(OCC2CO2)CCO1` (stereo not shown), the figure is 4.06%; as for `NC(=O)c1cnc(S)nc1O`, -0.398%; as for `C=C(CO)C(=O)NC1CCCCCCC1`, 25.3%.
For `Cc1ccnc(NS(=O)(=O)c2ccc(S(=O)(=O)F)cc2)c1`, the Inhibition % is recorded as 16.1%.
Regarding `NC(=O)COc1ccc(C(=O)CCl)cc1`, the Inhibition % is given as 5.31%.
As for `O=S(=O)(CCCl)c1ccccc1`, the figure is 4.74%; as for `Cc1ccccc1C(=O)N1CCCCC1C1OCCO1` (stereo not shown), 6.11%; as for `CCOC(C)n1nccc1B1OC(C)(C)C(C)(C)O1` (stereo not shown), 10.5%.
Consider `CC1(C)C2CN(C(=O)CCc3ccc(S(=O)(=O)F)cc3)CC21` (stereo not shown), for which the Inhibition % is given as 38.6%.
In the case of `O=C(Nc1cnc(C2CC2)nc1)c1cccnc1S` it was 7.43%; in that of `O=C(CCl)Nc1ccc2c(c1)OC1(CCCC1)O2`, 78.4%; in that of `N#Cc1cccnc1S`, 11.9%.
`Cc1ccc(C)c(S(=O)(=O)n2nc(C)cc2C)c1`: the Inhibition % stood at 1.62%.
In the case of `Cn1cc(C2NC(=O)C23CCC3)cn1` (stereo not shown) it was 9.37%; in that of `N#Cc1ccn(CO)n1`, 6.29%; in that of `C=CC(=O)N1CCN(c2nccnc2C)CC1`, 10.6%.
In the case of `C=CC(=O)NCC1CC2C=CC1CC2` (stereo not shown), the Inhibition % is listed as 9.57%.
In the case of `CC1(C)OB(C2=CCN(C(=O)OCc3ccccc3)CC2)OC1(C)C` it was 4.89%.
In the case of `Cn1c(S)nc2ccsc2c1=O` it was 5.34%; in that of `Cc1ccc(N)cc1S(=O)(=O)F`, 95.9%.
In the case of `N#Cc1nn[nH]c1-c1cccnc1` it was 1.36%.
On to `Cl.N#CC(=Cc1ccccc1)C(=O)NCCN1CCOCC1`, for which the Inhibition % came out at 1.67%.
As for `Cc1nc(S)nc(C)c1CCC(=O)O`, the figure is -1.24%; as for `N#CC(=Cc1cccc(F)c1)c1nnc2n1CCCCC2`, -0.367%; as for `C=CC(=O)N1CCC(CN(C)Cc2scnc2C)C1` (stereo not shown), 13.2%.
In the case of `O=C(O)C1CCCN1C(=O)C=Cc1cccnc1` (stereo not shown) it was 3.63%; in that of `C=CC(=O)N1CCN(c2ccncc2Cl)CC1`, 9.46%.
In the case of `CC1(C)C(=O)NC1C1CCN(c2ncccn2)CC1` (stereo not shown) it was 13.6%; in that of `N#CC(=Cc1cccnc1)c1nc2ccccc2c(=O)[nH]1`, 1.06%.
Take `Cc1ccc(C=CS(=O)(=O)N2CCOC(C(C)C)C2)cc1` (stereo not shown): the Inhibition % is 6.99%.
In the case of `O=C(CCl)NCC(=O)N1CCCC1` it was 2.12%; in that of `C=C(C)c1nc(C#N)c(NCc2ccc(OC)cc2)o1`, 3.5%.
In the case of `Cn1c(C#N)cnc1Cl`, the Inhibition % was found to be 0.0898%.
For the compound `Cc1cc2ccccn2c1C#N`, the Inhibition % is reported as 5.89%.
In the case of `CC1CC(N2CCCC2Cn2cccn2)C(=O)O1` (stereo not shown), the Inhibition % is on record as 18.4%.
In the case of `Cc1ccc(Cc2cnc(NC(=O)CCl)s2)cc1` it was 7.26%.
As for `C=CC(=O)N1CCN(S(=O)(=O)Cc2ccon2)CC1`, the figure is 9.01%; as for `O=C(CCl)Nc1ccc(Oc2ccccc2Cl)cc1`, 93.7%.
In the case of `Fc1cccc(CN2CCCC(C3OCCO3)C2)c1F` (stereo not shown) it was 20.9%; in that of `C=CC(=O)N(C)CC(C)(C)CN1CCOCC1`, 12.8%.
As to `Cc1nn(-c2ccccc2)c(C)c1NC(=O)CCl`, the Inhibition % stood at 6.29%.
In the case of `C=CC(=O)N1CCN2CCOCC2C1` (stereo not shown) it was 8.35%; in that of `CC(CC(O)c1ccccc1)NC(=O)c1cccnc1S` (stereo not shown), 5.61%; in that of `N#Cc1ccc(N2CCS(=O)CC2)cn1`, 2.19%.
In the case of `CNS(=O)(=O)C=Cc1ccccc1` it was 4.44%; in that of `Cc1c(Cl)ccc(S(=O)(=O)n2ccnc2C)c1Cl`, 7.13%.
As for `CC(C)(C)OC(=O)N1Cc2cccc(B3OC(C)(C)C(C)(C)O3)c2C1`, the figure is 2.85%; as for `C=CC(=O)NC(c1ccc(C)cc1)c1ccccn1` (stereo not shown), 4.1%.
On to `C=CC(=O)Nc1ccnc2cccnc12`, for which the Inhibition % is recorded as 8.73%.
As for `O=S(=O)(F)CCN1CCCn2ncc(C3CC3)c21`, the figure is 28.8%.
As for `C=CC(=O)N1CCOc2cccc(F)c2C1`, the figure is -0.151%; as for `O=C1NC(=O)C(CCS)N1` (stereo not shown), 26.8%.
As for `C=CC(=O)NC1C2CCOC2C12CCCC2` (stereo not shown), the figure is 5.2%; as for `CC1OCCC12CN(C(=O)c1cccc(B(O)O)c1)CCO2` (stereo not shown), 3.19%; as for `Cc1ccc(Cl)cc1Oc1nccnc1C#N`, 5.48%.
`C=CC(=O)N1CCN(C(C)c2nccs2)CC1` (stereo not shown): the Inhibition % is reported as 11.2%.
With `O=C(CCl)Nc1cc(-n2cnnn2)ccc1Cl`, the Inhibition % is 6.29%.
As for `C=CC(=O)N(CCc1nccs1)C(C)C`, the figure is 15%; as for `CC(C)Oc1ccc2[nH]cc(C(=O)CCl)c2c1`, 12.4%; as for `C=CC(=O)NCCC1=CCCCCC1`, 2.8%.
As for `N#Cc1cc(OCC(F)F)ccn1`, the figure is 22.9%.
As for `C=CC(=O)N1CCN(c2ccc(C)o2)C(=O)C1`, the figure is 5.39%; as for `COCC1CC2OC2C1` (stereo not shown), 4.9%; as for `CC1(C)OB(c2cccs2)OC1(C)C`, 1.39%.
Take `C=CC(=O)N(C)C[C@@H]1C[C@H](F)CN1c1ccncn1`: the Inhibition % is on record as 8.19%.
As for `Cc1ccc(S(=O)(=O)OCC2CCC(=O)N2)cc1` (stereo not shown), the figure is 4.34%; as for `C=CC(=O)Nc1c(C)nn(CC)c1C`, 2.74%.
As for `O=C1OCCC1Sc1n[nH]c(-c2cc(F)cc(F)c2)n1` (stereo not shown), the figure is 16.8%.
In the case of `C=CC(=O)N(C)CC(=O)N1c2ccccc2NC(=O)CC1C` (stereo not shown) it was 1.23%.
Take `COC(=O)c1c(NC(=O)CCl)sc2c1CCC2`: the Inhibition % worked out at 6.77%.
In the case of `CCN(Cc1ccc(Cl)s1)C(=O)CCl` it was 9.61%; in that of `C=CC(=O)N1CCCCC(C2CCOC2)C1` (stereo not shown), 8.08%.
On to `CCOc1cc(S(=O)(=O)n2cnc(C)c2)ccc1Cl`, for which the Inhibition % amounted to 7.03%.
As for `C=CC(=O)N1CCCN(Cc2nccn2C)CC1`, the Inhibition % was determined as 10.6%.
In the case of `O=C1SCCN1CN1CCN(c2ccccc2F)CC1` it was 3.81%; in that of `C=CC(=O)N1CCc2ccn(C)c2C1`, 13.1%.
With `N#Cc1ncn(CCC(=O)Nc2ccccc2)n1`, the Inhibition % is 0.146%.
In the case of `N#Cc1cnc(Oc2ccc(F)c(C(F)(F)F)c2)cn1` it was 7.97%; in that of `C=CC(=O)NC1CCc2cn(C(C)C)nc2C1` (stereo not shown), 11.9%; in that of `N#Cc1cnc(SCC(=O)Nc2ccccc2)cn1`, 23.1%.
In the case of `C=CCOc1ccc(Cl)c(C#N)n1` it was 4.33%; in that of `Cl.ClCCCc1ccccn1`, 3.8%.
In the case of `O=C(CCl)N1CCCc2ccccc21` it was 69.2%; in that of `O=C(CCl)NC1CCC2(CC1)OCCO2`, 15.9%; in that of `O=C(CCl)c1ccc(N2CCOC2=O)cc1`, 24.5%.
For the compound `C=CC(=O)N1CCN(C(C)=O)CC1`, the Inhibition % worked out at 4.07%.
In the case of `COc1ccc(C2(C)NC(=O)N(NC(=O)CCl)C2=O)cc1` (stereo not shown) it was 1.98%; in that of `C=CC(=O)N[C@H]1C[C@H](C)S(=O)(=O)c2sccc21`, 7.51%; in that of `O=C(CN1CCSC1=O)Nc1cc(Cl)ccc1F`, 6.77%.
In the case of `O=C(NCC1CCCS1(=O)=O)c1cccnc1S` (stereo not shown) it was 1.97%; in that of `CCN(CC)C(=O)Oc1cccc2cccnc12.Cl`, 6.29%; in that of `C=CC(=O)NCc1cn2c(n1)CCCC2`, 7.61%.
Take `C=CC(=O)N1CCC(COC)CC1`: the Inhibition % came to 25.8%.
As for `Cc1ccc(-c2nnc(C)[nH]2)c(NC(=O)CCl)c1`, the figure is 24.2%.
In the case of `Cc1cccc(Cl)c1B1OC(C)(C)C(C)(C)O1` it was 12.2%; in that of `CNC1CCCN(C(=O)C=Cc2ccnn2C)C1.Cl` (stereo not shown), 6.67%; in that of `C=CC(=O)N1CCCC1c1nccc(C(F)(F)F)n1` (stereo not shown), 8.62%.
In the case of `O=C(CCl)N1c2ccccc2Sc2ccc(Cl)cc21`, the Inhibition % is on record as 6.3%.
